{
  "source": "the RNAGym collection of RNA variant scans (doi:10.7554/elife.90254)",
  "parents": {"B1": {"name": "LINE1-full (parent)", "chain": "UACGUAGGUGGUUUUCCCCUGAUAGUGCUAAGGGGGCCUGGAAGUUUGGACUGGGCAGAGCUCAACACAGCGUGGCAAAGUGGCUGUGGCUAGACUGCCUCUCUGGAUUCCUCGUCACUCAGCAGGGCAUCUCUGAGAGAAAUGCC"}},
  "note": "Read counts are not given, so values of variants with three or more changes are uncertain.",
  "data": [
    {"variants_of": "B1", "assay": "self-cleavage, relative activity (ratio to wild type); higher = more cleavage; in vitro, sequencing; the parent is a self-cleaving ribozyme", "values": [
      {"variant": "UACGUAGGUGGUUUUCCCCUGAUAGUGCUAAGGGGGCCUGGAAGUUUGGACUGGGCAGAGCACAACACAGCGUGGCAAAGUGGCUGUGGCUAGACUGCCUCUCUGGAUUCCUCGUCACUCAGCAGGGCGUCCCUGGGAGAAAUGCC", "self-cleavage": 0.06},
      {"variant": "UACGUAGGUGGUUUUCCCCUGAUAGUGCUAAGGGGGCCUGGAAGUUUGGACUGGGCAGAUCUCAACACAGCGUGGCAAAGUGGCUGUGGCUAGACCGCCUCUCUGGAUUCCUCGUCACUCAGCAGGGCGUCUCUGAGAGAAAUGCC", "self-cleavage": 0.01},
      {"variant": "UACGUAGGUGGUUUUCCCCUGAUAGUGCUAAGGGGGCCUGGAAGUUUGGACUGGGCAGAGUUCGACACAGCGUGGCAAAGUGGCUGUGGCUAGACUGCCUCUCUGGAUUCCUCGUCACUCUGCAGGGCAUCUCUGAGAGAAAUGCC", "self-cleavage": 0.06},
      {"variant": "UACGUAGGUGGUUUUCCCCUGAUAGUGCUAAGGGGGCCUGGAAGUUUGGACUGGGCAGAGUUCAACACAGCGUGGCAAAGUGGCUGUGGCUAGACUGCCUCUCUGGAUUCCUCGUCACUCAGCAGAGCAUCUCCGAGAGAAGUGCC", "self-cleavage": 0.04},
      {"variant": "UACGUAGGUGGUUUUCCCCUGAUAGUGCUAAGGGGGCCUGGAAGUUUGGACUGGGCAGAGCACUACACAGCGUGGCAAAGAGGCUGUGGCUAGACUGCCUCUCUGGAUUCCUCGUCACUCAGCAGGGCAUCUCUGAGAGAAAUGCC", "self-cleavage": 0.19},
      {"variant": "UACGUAGGUGGUUUUCCCCUGAUAGUGCUAAGGGGGCCUGGAAGUUUGGACUGGGCAGAGCACAACGCAGCGUGGCAAAGUGGCUGUGGCUAGACCGCCUCUCUGGAUUCCUCGUCACUCAGCAGGGCAUCUCUGUGAGAAAUGCC", "self-cleavage": 0},
      {"variant": "UACGUAGGUGGUUUUCCCCUGAUAGUGCUAAGGGGGCCUGGAAGUUUGGACUGGGCAGAUCUCAACACAGAGUGGCAAAGUGGCUGGGGCUAGACUGCCUCUCUGGAUUCCUCGUCACUCAGCAGGGCAUCUCUGAGAGAAAUGCC", "self-cleavage": 0.03},
      {"variant": "UACGUAGGUGGUUUUCCCCUGAUAGUGCUAAGGGGGCCUGGAAGUUUGGACUGGGCAGAGCACAACACAGCGUGGCAAAGUGGCUGUGGCUAGACUGUCUCUCUGGAUUCCUCGUCACUCAUCAGGGCAUCUCUGAGAGAAAUGCC", "self-cleavage": 0.01},
      {"variant": "UACGUAGGUGGUUUUCCCCUGAUAGUGCUAAGGGGGCCUGGAAGUUUGGACUGGGCAGAGUUCAACACGGCGUGGCAAAGUGGCUGUGGCUAGACUGCCUCUCUGGAUUCCUCGUCACUCAGCGGGGCAUCUCUGAGGGAAAUGCC", "self-cleavage": 0.07},
      {"variant": "UACGUAGGUGGUUUUCCCCUGAUAGUGCUAAGGGGGCCUGGAAGUUUGGACUGGGCAGAGUUCAACACAGCGUGGCAAAGUGGCUGUGGCUAGACUGCCUCUCUGGAUUCCUCGUCGCUCAGCAAGGCAUCUUUGAGAGAAAUGCC", "self-cleavage": 0.01},
      {"variant": "UACGUAGGUGGUUUUCCCCUGAUAGUGCUAAGGGGGCCUGGAAGUUUGGACUGGGCAGAGCACAGCACAGCGUGGCAAAGUGGCUGUGGCUAGACUGCCUCUCUGGAUUCCUCGUCACUCAGCGGGGCAUCUCUGAGAGAAAUGCC", "self-cleavage": 0},
      {"variant": "UACGUAGGUGGUUUUCCCCUGAUAGUGCUAAGGGGGCCUGGAAGUUUGGACUGGGCAGAGCACGACACAGCGUGGCGAAGUGGCUGUGGCUAGACUGCCUCUCUGGAUUCCUCGUCACUCAGCAGGGCAUCUCUGAGAGAAAUGCC", "self-cleavage": 0},
      {"variant": "UACGUAGGUGGUUUUCCCCUGAUAGUGCUAAGGGGGCCUGGAAGUUUGGACUGGGCAGAACUCAACACAGCGUGGCAAAGUGGCUAUGGCUAGACUGCCUCUCUGGAUUCCUCGUCACUCAGCAGGGCAUGUCUGAGAGAAAUGCC", "self-cleavage": 0.03},
      {"variant": "UACGUAGGUGGUUUUCCCCUGAUAGUGCUAAGGGGGCCUGGAAGUUUGGACUGGGCAGAGCACAACACAGCGUGACAAAGUGGCUGUGGCUAGACUGCCUCUCUGGAUUCCUCGUCACCCAGCAGGGCAUCUCUGAGAGAAAUGCC", "self-cleavage": 0},
      {"variant": "UACGUAGGUGGUUUUCCCCUGAUAGUGCUAAGGGGGCCUGGAAGUUUGGACUGGGCAGAGCACAACACAGCGUGGCAAAGUGGCUGAGGCUAGACUGCCUCUCUGGAUUCCUCGUCACUCAGCAGGGCAUCUCUGAGAGAAGUGCC", "self-cleavage": 0.07},
      {"variant": "UACGUAGGUGGUUUUCCCCUGAUAGUGCUAAGGGGGCCUGGAAGUUUGGACUGGGCAGAGCACAACACAGCGUGGCAAUGAGGCUGUGGCUAGACUGCCUCUCUGGAUUCCUCGUCACUCAGCAGGGCAUCUCUGAGAGAAAUGCC", "self-cleavage": 0.02},
      {"variant": "UACGUAGGUGGUUUUCCCCUGAUAGUGCUAAGGGGGCCUGGAAGUUUGGACUGGGCAGAACUCAACACAGCGCGGCAAAGUGGCUGUGGCUAGACUGCCUCUCUGGAUUCCUCGUCACUCGGCAGGGCAUCUCUGAGAGAAAUGCC", "self-cleavage": 0.08},
      {"variant": "UACGUAGGUGGUUUUCCCCUGAUAGUGCUAAGGGGGCCUGGAAGUUUGGACUGGGCAGAGCACAACACAGCGUGGCAAAGUGGCAGUGGCUAGACUGCCUCUCUGGAUUCCUCGUCACUCGGCAGGGCAUCUCUGAGAGAAAUGCC", "self-cleavage": 0.05},
      {"variant": "UACGUAGGUGGUUUUCCCCUGAUAGUGCUAAGGGGGCCUGGAAGUUUGGACUGGGCAGAGAUAAUCACAGCGUGGCAAAGUGGCUGUGGCUAGGCUGCCUCUCUGGAUUCCUCGUCACUCAGCGAGGCAUCUCUGAGAGAAAUGCC", "self-cleavage": 0},
      {"variant": "UACGUAGGUGGUUUUCCCCUGAUAGUGCUAAGGGGGCCUGGAAGUUUGGACUGGGCAGAGUUCAACACAGCGUAGCAAGGUGGCUGUGGCUAGACUGCCUCUCUGGAUUCCUUGUCACUCAGCAGGGCAUCUCUGAGAGAAAUGCC", "self-cleavage": 0.02},
      {"variant": "UACGUAGGUGGUUUUCCCCUGAUAGUGCUAAGGGGGCCUGGAAGUUUGGACUGGGCAGAGCACAACACUGCGUGGCAAAGUGGCUGUGGCUAGACUGCCUCUCUGGAUUCCUCGUCACGCAGCAGGGCAUCUCUGAGAGAAAUGCC", "self-cleavage": 0.05},
      {"variant": "UACGUAGGUGGUUUUCCCCUGAUAGUGCUAAGGGGGCCUGGAAGUUUGGACUGGGCAGAGCACAACACAGCGUGGCAAAGUGGCUGUGGCUGGACUGCCUCUCUGGAUUCCUCGUCACUCAGCAGGGCGUCUCUGAGAGAAAUGCC", "self-cleavage": 0},
      {"variant": "UACGUAGGUGGUUUUCCCCUGAUAGUGCUAAGGGGGCCUGGAAGUUUGGACUGGGCAGAUCUUAACACAGCGUGGCAAAGCGGCUGUGGCUAGACUGCCUCUCUGGACUCCUCGUCACUCAGCAGGGCAUCUCUGAGAGAAAUGCC", "self-cleavage": 0.03},
      {"variant": "UACGUAGGUGGUUUUCCCCUGAUAGUGCUAAGGGGGCCUGGAAGUUUGGACUGGGCAGAGAUCAACACAGCGUGGCGAAGUGGUUGUGGCUAGACUGCCUCUCUGGAUUCCUCGUCACUCAGCAGGGCAACUCUGGGGGAAAUGUC", "self-cleavage": 0},
      {"variant": "UACGUAGGUGGUUUUCCCCUGAUAGUGCUAAGGGGGCCUGGAAGUUUGGACUGGGCAGAACUCAACACAGCGUGGCAAAGUGGCUGUGGCUAGACUGCCUCUCUGGGUUCCUCGUCACUCAGCAGGGCAUCUCGGAGAGAGAUGCC", "self-cleavage": 0.02},
      {"variant": "UACGUAGGUGGUUUUCCCCUGAUAGUGCUAAGGGGGCCUGGAAGUUUGGACUGGGCAGAGCACAACACAGCGUGGCAAAGAGGCUGUGGCUAGACUGCCUCCCUGGAUUCCUCGUCACUCAGCAGGGCAUCUCUGAGAGAAAUGCC", "self-cleavage": 0.02},
      {"variant": "UACGUAGGUGGUUUUCCCCUGAUAGUGCUAAGGGGGCCUGGAAGUUUGGACUGGGCAGAGCACAACGCAGCGUGGCUAAGUGGCUGUGGCUAGACUGCCUCUCUGGAUUCCUCGUCACUCAGCAGGGCGUCUCUGAGAGAAAUGCC", "self-cleavage": 0.07},
      {"variant": "UACGUAGGUGGUUUUCCCCUGAUAGUGCUAAGGGGGCCUGGAAGUUUGGACUGGGCAGACCUCAACACAGCGUGGCAAAGUGGCUGUGGCUAGACUGCCUCUCUGGAUUCCUCGUCACUCAGCAGGGCACCUCUGAGAGAAACGCC", "self-cleavage": 0.03},
      {"variant": "UACGUAGGUGGUUUUCCCCUGAUAGUGCUAAGGGGGCCUGGAAGUUUGGACUGGGCAGAGCACAACACGGCGUGGCAAAGUGGCUGUGGCUAGACUGCCUCUCUGGAUUCCUCGUCACUCAGCAGGGCAUCUCUGAGUGAAAUGCC", "self-cleavage": 0.2},
      {"variant": "UACGUAGGUGGUUUUCCCCUGAUAGUGCUAAGGGGGCCUGGAAGUUUGGACUGGGCAGAGCACAACACAGCGUGGCAAAGUGGCUGUGGCUAGACUGCCUCUCUGGAUUCCUCGUCACUCAGCAGGGCAUCUCUGCAAGAAAUGCC", "self-cleavage": 0.04},
      {"variant": "UACGUAGGUGGUUUUCCCCUGAUAGUGCUAAGGGGGCCUGGAAGUUUGGACUGGGCAGUGCUCAACACAGCGUGGCAAAGUGGCUGUGGCUAGACUGCCUCUCUGGAUUCCUCGUCACACAGCAGGGCAUCUCUGAGGGAAAUGCC", "self-cleavage": 0.5},
      {"variant": "UACGUAGGUGGUUUUCCCCUGAUAGUGCUAAGGGGGCCUGGAAGUUUGGACUGGGCAGAGUUCAACACAGCGUGGCUAAGUGGCUGUGGCUAGACUGCCUCUCUGGAUUCCUCGUCACUCCGCAGGGCAUCUCUGAGAGAAAUGCC", "self-cleavage": 0.04},
      {"variant": "UACGUAGGUGGUUUUCCCCUGAUAGUGCUAAGGGGGCCUGGAAGUUUGGACUGGGCAGAGCACAACACAGCGUGGCAAAGUGGCUGUGGCUAGGCUGCUUCCCUGGAUUCCUCGUCACUCAGCAGGGCAUCUCUGAGAGAAAUGCC", "self-cleavage": 0.04},
      {"variant": "UACGUAGGUGGUUUUCCCCUGAUAGUGCUAAGGGGGCCUGGAAGUUUGGACUGGGCAGAGCACAACACAGCGUGGCAAAGUGGCUGUGGCUAGACUGCCUCUCUGGAUUCCUCGUCACUCAGCAGGGCAUCUCUGGGAGGGAUGCC", "self-cleavage": 0},
      {"variant": "UACGUAGGUGGUUUUCCCCUGAUAGUGCUAAGGGGGCCUGGAAGUUUGGACUGGGCAGAACUCAGCACAGCGUGGCAAAGUGGCUGUGGCUAGACUGCCUCUCUGGAUUCCUCGUCACUCAGCGGGGCAUCUCUGAGAGAAAUGCC", "self-cleavage": 0},
      {"variant": "UACGUAGGUGGUUUUCCCCUGAUAGUGCUAAGGGGGCCUGGAAGUUUGGACUGGGCAGAGCACUACACAGCGUGGCAAAGUGGCUGUGGCUGGACUGCCUCUCUGGAUUCCUCGUCACUCAGCGGGGCAUCUCUGAGAGAAAUGCC", "self-cleavage": 0.14},
      {"variant": "UACGUAGGUGGUUUUCCCCUGAUAGUGCUAAGGGGGCCUGGAAGUUUGGACUGGGCAGAGGUCAACACAGCGUGGCAAAGUGGCUGUGGCUAGGCUGCCCCUCUGGAUUCCUCGUCACUCAGCAGGGCAUCUCUGAGAGAAGUGCC", "self-cleavage": 0},
      {"variant": "UACGUAGGUGGUUUUCCCCUGAUAGUGCUAAGGGGGCCUGGAAGUUUGGACUGGGCAGUGCUCAACACAGCGUGGCAAAGUGGCUGUGGCUAGACUGCCUCUCUGGAUUCCACGUCACUCAGCAGGGCGUCUCUGAGAGAGAUGCC", "self-cleavage": 1.9},
      {"variant": "UACGUAGGUGGUUUUCCCCUGAUAGUGCUAAGGGGGCCUGGAAGUUUGGACUGGGCAGAGCACAGCACAGCGUGGCAAAGUGGCUGUGACUAGACUGCCUCUCUGGAUUCCUCGUCACUCAGCAGGGCAUCUCUGAGAGAAAUGCC", "self-cleavage": 0.03}
    ]}
  ]
}
